# Assay results from the supplement of paper PMC8728848.
# The other results are listed elsewhere or left out.
# What was measured:
# Assay in all cases: glycan array binding signal (z-score within array); higher = stronger binding
# Conditions in all cases: glycan notation: IUPAC condensed, linker removed
# [1] = target: GlcNAc(b1-4)GlcNAc
# Procedure, shortened: (§1)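 The Consortium for Functional Glycomics database supplied 3228 glycan arrays, of which those lacking an available protein sequence were dropped. The binding signal, a within-array Z-score, was averaged across arrays of the same protein sequence and across linkers. Negative scores can be read as non-binding.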
# [2] = target: GlcNAc(b1-4)GlcNAc(b1-4)GlcNAc
# Procedure, shortened: as §1
# [3] = target: GlcNAc(b1-4)GlcNAc(b1-4)GlcNAc(b1-4)GlcNAc(b1-4)GlcNAc
# Procedure, shortened: as §1
# [4] = target: GlcNAc(b1-4)GlcNAc(b1-4)GlcNAc(b1-4)GlcNAc(b1-4)GlcNAc(b1-4)GlcNAc
# Procedure, shortened: as §1
# [5] = target: GlcNAc(b1-4)[GlcNAc(b1-6)]GalNAc
# Procedure, shortened: as §1
# [6] = target: GlcNAc(b1-6)Gal(b1-4)GlcNAc
# Procedure, shortened: as §1
# [7] = target: GlcNAc(b1-6)GalNAc
# Procedure, shortened: as §1
# [8] = target: GlcNAc3Prop(b1-4)GlcNAc
# Procedure, shortened: as §1
# [9] = target: GlcNAc6S(b1-3)Gal(b1-4)GlcNAc
# Procedure, shortened: as §1
# [10] = target: Kdn(a2-3)Gal(b1-3)GalNAc
# Procedure, shortened: as §1
# [11] = target: Kdn(a2-3)Gal(b1-3)GlcNAc
# Procedure, shortened: as §1
# [12] = target: Kdn(a2-3)Gal(b1-4)Glc
# Procedure, shortened: as §1
# [13] = target: Kdn(a2-3)Gal(b1-4)GlcNAc
# Procedure, shortened: as §1
# [14] = target: Kdn(a2-3)Gal(b1-4)[Fuc(a1-3)]GlcNAc
# Procedure, shortened: as §1
# [15] = target: Kdn(a2-6)Gal(b1-4)GlcNAc
# Procedure, shortened: as §1
# [16] = target: Man(a1-2)Man(a1-2)Man(a1-3)Man
# Procedure, shortened: as §1
# [17] = target: Man(a1-2)Man(a1-2)Man(a1-6)[Man(a1-3)]Man
# Procedure, shortened: as §1
# [18] = target: Man(a1-2)Man(a1-3)Man
# Procedure, shortened: as §1
# [19] = target: Man(a1-2)Man(a1-3)[Man(a1-2)Man(a1-6)]Man
# Procedure, shortened: as §1
# [20] = target: Man(a1-2)Man(a1-3)[Man(a1-2)Man(a1-6)]Man(a1-6)[Man(a1-2)Man(a1-2)Man(a1-3)]Man
# Procedure, shortened: as §1
# [21] = target: Man(a1-2)Man(a1-3)[Man(a1-2)Man(a1-6)]Man(a1-6)[Man(a1-2)Man(a1-2)Man(a1-3)]Man(b1-4)GlcNAc(b1-4)GlcNAc
# Procedure, shortened: as §1
# [22] = target: Man(a1-2)Man(a1-3)[Man(a1-6)]Man(a1-6)[Man(a1-2)Man(a1-3)]Man(b1-4)GlcNAc(b1-4)GlcNAc
# Procedure, shortened: as §1
# [23] = target: Man(a1-2)Man(a1-6)[Man(a1-3)]Man(a1-6)[Man(a1-2)Man(a1-2)Man(a1-3)]Man
# Procedure, shortened: as §1
# [24] = target: Man(a1-2)Man(a1-6)[Man(a1-3)]Man(a1-6)[Man(a1-2)Man(a1-2)Man(a1-3)]Man(b1-4)GlcNAc(b1-4)GlcNAc
# Procedure, shortened: as §1
# [25] = target: Man(a1-3)[Man(a1-6)]Man
# Procedure, shortened: as §1
# [26] = target: Man(a1-3)[Man(a1-6)]Man(a1-6)[Man(a1-2)Man(a1-3)]Man(b1-4)GlcNAc(b1-4)GlcNAc
# Procedure, shortened: as §1
# [27] = target: Man(a1-3)[Man(a1-6)]Man(a1-6)[Man(a1-3)]Man
# Procedure, shortened: as §1
# [28] = target: Man(a1-3)[Man(a1-6)]Man(a1-6)[Man(a1-3)]Man(b1-4)GlcNAc(b1-4)GlcNAc
# Procedure, shortened: as §1
# [29] = target: Man(a1-3)[Man(a1-6)]Man(b1-4)GlcNAc(b1-4)GlcNAc
# Procedure, shortened: as §1
# [30] = target: Man(a1-6)Man
# Procedure, shortened: as §1
# [31] = target: Man(b1-4)GlcNAc
# Procedure, shortened: as §1
# [32] = target: Neu5Ac(a2-3)Gal
# Procedure, shortened: as §1
# [33] = target: Neu5Ac(a2-3)Gal(b1-3)GalNAc
# Procedure, shortened: as §1
# [34] = target: Neu5Ac(a2-3)Gal(b1-3)GalNAc(b1-3)Gal(a1-4)Gal(b1-4)Glc
# Procedure, shortened: as §1
# [35] = target: Neu5Ac(a2-3)Gal(b1-3)GalNAc(b1-3)Gal(b1-4)GlcNAc
# Procedure, shortened: as §1
# [36] = target: Neu5Ac(a2-3)Gal(b1-3)GalNAc(b1-4)[Neu5Ac(a2-3)]Gal(b1-4)Glc
# Procedure, shortened: as §1
# [37] = target: Neu5Ac(a2-3)Gal(b1-3)GalNAc6S
# Procedure, shortened: as §1
# [38] = target: Neu5Ac(a2-3)Gal(b1-3)GlcNAc
# Procedure, shortened: as §1
# [39] = target: Neu5Ac(a2-3)Gal(b1-3)GlcNAc(b1-3)Gal(b1-3)GlcNAc
# Procedure, shortened: as §1
# [40] = target: Neu5Ac(a2-3)Gal(b1-3)GlcNAc6S
# Procedure, shortened: as §1
# [41] = target: Neu5Ac(a2-3)Gal(b1-3)[Fuc(a1-4)]GlcNAc
# Procedure, shortened: as §1
# [42] = target: Neu5Ac(a2-3)Gal(b1-3)[Fuc(a1-4)]GlcNAc(b1-3)Gal(b1-3)[Fuc(a1-4)]GlcNAc
# Procedure, shortened: as §1
# [43] = target: Neu5Ac(a2-3)Gal(b1-3)[Fuc(a1-4)]GlcNAc(b1-3)Gal(b1-4)[Fuc(a1-3)]GlcNAc
# Procedure, shortened: as §1
# [44] = target: Neu5Ac(a2-3)Gal(b1-3)[Neu5Ac(a2-3)Gal(b1-4)]GlcNAc
# Procedure, shortened: as §1
# [45] = target: Neu5Ac(a2-3)Gal(b1-3)[Neu5Ac(a2-6)]GalNAc
# Procedure, shortened: as §1
# [46] = target: Neu5Ac(a2-3)Gal(b1-4)Glc
# Procedure, shortened: as §1
# [47] = target: Neu5Ac(a2-3)Gal(b1-4)GlcNAc
# Procedure, shortened: as §1
# [48] = target: Neu5Ac(a2-3)Gal(b1-4)GlcNAc(b1-2)Man(a1-3)[GlcNAc(b1-2)Man(b1-4)GlcNAc(b1-2)Man(a1-6)]Man(b1-4)GlcNAc(b1-4)GlcNAc
# Procedure, shortened: as §1
# [49] = target: Neu5Ac(a2-3)Gal(b1-4)GlcNAc(b1-2)Man(a1-3)[Neu5Ac(a2-6)Gal(b1-4)GlcNAc(b1-2)Man(a1-6)]Man(b1-4)GlcNAc(b1-4)GlcNAc
# Procedure, shortened: as §1
# [50] = target: Neu5Ac(a2-3)Gal(b1-4)GlcNAc(b1-3)Gal(b1-3)GlcNAc
# Procedure, shortened: as §1
# [51] = target: Neu5Ac(a2-3)Gal(b1-4)GlcNAc(b1-3)Gal(b1-4)GlcNAc
# Procedure, shortened: as §1
# [52] = target: Neu5Ac(a2-3)Gal(b1-4)GlcNAc(b1-3)Gal(b1-4)GlcNAc(b1-3)Gal(b1-4)GlcNAc
# Procedure, shortened: as §1
# [53] = target: Neu5Ac(a2-3)Gal(b1-4)GlcNAc(b1-3)Gal(b1-4)[Fuc(a1-3)]GlcNAc
# Procedure, shortened: as §1
# [54] = target: Neu5Ac(a2-3)Gal(b1-4)GlcNAc(b1-3)GalNAc
# Procedure, shortened: as §1
# [55] = target: Neu5Ac(a2-3)Gal(b1-4)GlcNAc(b1-6)[Gal(b1-3)]GalNAc
# Procedure, shortened: as §1
# [56] = target: Neu5Ac(a2-3)Gal(b1-4)GlcNAc(b1-6)[Neu5Ac(a2-3)Gal(b1-3)]GalNAc
# Procedure, shortened: as §1
# [57] = target: Neu5Ac(a2-3)Gal(b1-4)GlcNAc6S
# Procedure, shortened: as §1
binder,measurement,setting,value
"MRCL (Homo sapiens), NP_872425.1 (protein) ATKVHFPFHTCDLRIDGDCFMVSSEADTYYRARMKCQRKGGVLAQIKSQKVQDILAFYLGRLETTNEVTDSDFETRNFWIGLTYKTAKDSFRWATGEHQAFTSFAFGQPDNHGLVWLSAAMGFGNCVELQASAAFNWNNQRCKTRNRYICQFAQEHISRWGPGS",glycan array binding signal (z-score),[1],-0.233
same,glycan array binding signal (z-score),[2],-0.601
same,glycan array binding signal (z-score),[3],0.255
same,glycan array binding signal (z-score),[4],-0.634
same,glycan array binding signal (z-score),[5],-0.523
same,glycan array binding signal (z-score),[6],-0.346
same,glycan array binding signal (z-score),[7],-0.538
same,glycan array binding signal (z-score),[8],-0.643
same,glycan array binding signal (z-score),[9],-0.552
same,glycan array binding signal (z-score),[10],-0.486
same,glycan array binding signal (z-score),[11],-0.398
same,glycan array binding signal (z-score),[12],-0.43
same,glycan array binding signal (z-score),[13],-0.21
same,glycan array binding signal (z-score),[14],0.401
same,glycan array binding signal (z-score),[15],-0.606
same,glycan array binding signal (z-score),[16],-0.351
same,glycan array binding signal (z-score),[17],0.135
same,glycan array binding signal (z-score),[18],-0.716
same,glycan array binding signal (z-score),[19],0.071
same,glycan array binding signal (z-score),[20],-0.582
same,glycan array binding signal (z-score),[21],1.73
same,glycan array binding signal (z-score),[22],-0.446
same,glycan array binding signal (z-score),[23],0.021
same,glycan array binding signal (z-score),[24],-0.551
same,glycan array binding signal (z-score),[25],-0.711
same,glycan array binding signal (z-score),[26],-0.572
same,glycan array binding signal (z-score),[27],-0.611
same,glycan array binding signal (z-score),[28],0.94
same,glycan array binding signal (z-score),[29],-0.585
same,glycan array binding signal (z-score),[30],0.948
same,glycan array binding signal (z-score),[31],-0.638
same,glycan array binding signal (z-score),[32],-0.532
same,glycan array binding signal (z-score),[33],-0.601
same,glycan array binding signal (z-score),[34],0.396
same,glycan array binding signal (z-score),[35],-0.66
same,glycan array binding signal (z-score),[36],-0.674
same,glycan array binding signal (z-score),[37],-0.071
same,glycan array binding signal (z-score),[38],-0.312
same,glycan array binding signal (z-score),[39],-0.295
same,glycan array binding signal (z-score),[40],-0.562
same,glycan array binding signal (z-score),[41],0.257
same,glycan array binding signal (z-score),[42],-0.766
same,glycan array binding signal (z-score),[43],-0.284
same,glycan array binding signal (z-score),[44],0.239
same,glycan array binding signal (z-score),[45],0.119
same,glycan array binding signal (z-score),[46],-0.235
same,glycan array binding signal (z-score),[47],-0.626
same,glycan array binding signal (z-score),[48],-0.294
same,glycan array binding signal (z-score),[49],-0.156
same,glycan array binding signal (z-score),[50],0.087
same,glycan array binding signal (z-score),[51],-0.539
same,glycan array binding signal (z-score),[52],-0.184
same,glycan array binding signal (z-score),[53],-0.365
same,glycan array binding signal (z-score),[54],-0.532
same,glycan array binding signal (z-score),[55],2.79
same,glycan array binding signal (z-score),[56],-0.476
same,glycan array binding signal (z-score),[57],-0.471
